In all, about 310,000 compounds went through this assay and about 14,000 (4.5%) showed an effect of 50% or more. Effects have a minus sign here. This is one part of the list.
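Note: peak tail current of the secondary pulse compared with the same well before compound.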

Sequence of human ether-à-go-go-related gene (hERG) potassium channel (Q12809 whole entry, looked up): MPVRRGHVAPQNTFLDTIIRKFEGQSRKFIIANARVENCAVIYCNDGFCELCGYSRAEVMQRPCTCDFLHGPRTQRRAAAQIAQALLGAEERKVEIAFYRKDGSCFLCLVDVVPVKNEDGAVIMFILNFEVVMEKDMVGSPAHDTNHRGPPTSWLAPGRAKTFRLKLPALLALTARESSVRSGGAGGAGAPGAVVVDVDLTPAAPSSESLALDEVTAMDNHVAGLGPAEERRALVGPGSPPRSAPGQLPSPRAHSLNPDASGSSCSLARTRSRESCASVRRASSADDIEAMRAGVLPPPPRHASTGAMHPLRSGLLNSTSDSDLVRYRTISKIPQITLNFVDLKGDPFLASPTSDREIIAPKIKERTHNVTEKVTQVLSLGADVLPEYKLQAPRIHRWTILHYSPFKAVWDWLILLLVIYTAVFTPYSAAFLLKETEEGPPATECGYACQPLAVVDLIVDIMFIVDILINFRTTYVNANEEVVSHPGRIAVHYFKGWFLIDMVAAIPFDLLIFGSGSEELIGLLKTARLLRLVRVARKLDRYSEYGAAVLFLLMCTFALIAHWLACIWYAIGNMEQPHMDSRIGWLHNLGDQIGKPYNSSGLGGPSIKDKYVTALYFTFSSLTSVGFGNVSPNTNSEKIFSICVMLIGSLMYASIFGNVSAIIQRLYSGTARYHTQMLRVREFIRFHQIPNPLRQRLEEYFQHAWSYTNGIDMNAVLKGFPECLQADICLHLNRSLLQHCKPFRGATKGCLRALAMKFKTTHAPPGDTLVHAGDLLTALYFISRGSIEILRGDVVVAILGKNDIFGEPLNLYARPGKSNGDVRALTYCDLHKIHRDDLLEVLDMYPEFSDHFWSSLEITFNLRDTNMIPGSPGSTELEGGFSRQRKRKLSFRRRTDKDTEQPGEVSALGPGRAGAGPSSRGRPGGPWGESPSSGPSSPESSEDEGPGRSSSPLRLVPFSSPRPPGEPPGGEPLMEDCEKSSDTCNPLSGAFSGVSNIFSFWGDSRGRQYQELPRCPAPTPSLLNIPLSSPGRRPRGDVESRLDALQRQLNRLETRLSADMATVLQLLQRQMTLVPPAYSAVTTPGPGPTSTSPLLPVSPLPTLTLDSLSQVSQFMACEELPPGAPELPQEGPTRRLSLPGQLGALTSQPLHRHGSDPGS

This test addresses human ether-à-go-go-related gene (hERG) potassium channel (human, UniProt Q12809). Description: primary screen, population patch clamp on CHO cells stably expressing hERG.
For the compound `N#CC1(CCCN2CCCCC2)c2ccccc2CCc2ccccc21.O=C(O)C(=O)O`, the “hERG current change (%, negative = inhibition) at 10uM” value is on record as -52.7%.
As to `CCN(CC(=O)Nc1c(F)cccc1F)C(=O)CCNS(=O)(=O)c1ccccc1C(F)(F)F`, the “hERG current change (%, negative = inhibition) at 10uM” value was determined as 3.06%.
With `Clc1ccc(-c2nnc(SCc3ccon3)o2)c(Cl)c1` the figure was -33.9%; with `Cc1cccc(C)c1NC(=O)CN(C)C(=O)CCc1nc2sc3c(c2c(=O)[nH]1)CCCC3`, 5.53%.
For `CCCN1CCc2c(sc(NC(=O)CCS(=O)(=O)c3ccccc3)c2C(=O)OC)C1.Cl`, the “hERG current change (%, negative = inhibition) at 10uM” value is listed as -67%.
Take `COc1ccc(C(=O)N2CCN(S(=O)(=O)c3ccc(C)cc3C)CC2)cc1OC`: the “hERG current change (%, negative = inhibition) at 10uM” value is reported as -20.7%.
In the case of `Nc1nc2ccc(-c3nc4ccccc4o3)cc2s1`, the “hERG current change (%, negative = inhibition) at 10uM” value is recorded as 0.315%.
As to `CC(C)CCNC(=O)c1ccc2c(Cl)c3c(nc2c1)CCC3`, the “hERG current change (%, negative = inhibition) at 10uM” value is recorded as 21.4%.
Turning to `CCc1cccc(NS(=O)(=O)c2c(C)n[nH]c2C)c1.Cl`, the “hERG current change (%, negative = inhibition) at 10uM” value amounted to 2.67%.
Turning to `Cn1cccc1C1(C(F)(F)F)NCCNC1=O` (centres unmarked), the “hERG current change (%, negative = inhibition) at 10uM” value was 0.985%.
For the compound `O=C(COc1ccc([N+](=O)[O-])cc1)Nc1ccc(N2CCCC2)cc1`, the “hERG current change (%, negative = inhibition) at 10uM” value amounted to 12.1%.
`O=C(Nc1nnc(-c2ccccc2Cl)o1)c1nc2ccccc2s1`: the “hERG current change (%, negative = inhibition) at 10uM” value is given as 1%.
With `CCOC(=O)c1ccc(NC(=O)c2nccnc2C(=O)O)cc1` the figure was 1.42%.
Under `CCOC(=O)C(C(=O)Nc1nc2ccccc2s1)C1CCCCC1` (centres unmarked) stands 12.4%; under `Cc1ccc(NC(=O)c2cccc(S(=O)(=O)N3CCCCC3)c2)cc1`, 11.4%.
Turning to `Cl.Nc1cnccc1Oc1cccc(C(F)(F)F)c1`, the “hERG current change (%, negative = inhibition) at 10uM” value amounted to 4.65%.
With `Clc1ccc(-c2ccc(CN3CCCCC3)o2)cc1` the figure was -11.8%; with `Cc1ccnc(NC(=O)c2cccc(S(=O)(=O)NCc3ccccc3)c2)c1`, -34.6%; with `Cc1cc2c(n1-c1ccc(Br)cc1)CC(C)(C)CC2=O`, -33.5%.
In the case of `CCCC(C(=O)NCc1ccco1)N(C(=O)CNS(=O)(=O)c1ccccc1)C1CCCC1` (centres unmarked), the “hERG current change (%, negative = inhibition) at 10uM” value is on record as -18.8%.
For `Cc1cccc(N2CC(c3nc4ccccc4[nH]3)CC2=O)c1` (centres unmarked), the “hERG current change (%, negative = inhibition) at 10uM” value was 6.36%.
On to `COc1ccc(OCCOc2ccccc2[N+](=O)[O-])cc1`, for which the “hERG current change (%, negative = inhibition) at 10uM” value was 12.7%.
Under `CN(Cc1nccs1)C(=O)C1CCC(=O)N(Cc2ccccc2F)C1` (centres unmarked) stands -16.1%; under `COCCOC(=O)c1c(C)oc2ccc(OC(=O)c3cccs3)cc12`, 10.8%.
With `Nc1c(C(=O)NC2CCCCC2)nsc1C(=O)OCC(=O)NC1CCCCC1` the figure was 12.5%.
Take `COc1ccccc1NC(=O)c1cc2c(CO)cnc(C)c2oc1=Nc1ccccc1`: the “hERG current change (%, negative = inhibition) at 10uM” value worked out at 33.9%.
Take `O=C(O)c1ccccc1NC(=O)C(Cc1ccccc1)N1C(=O)c2ccccc2C1=O` (centres unmarked): the “hERG current change (%, negative = inhibition) at 10uM” value is 11.3%.
With `CC(=O)Nc1c(I)c(NC(C)=O)c(I)c(C(=O)O)c1I.CNC[C@H](O)[C@@H](O)[C@H](O)[C@H](O)CO`, the “hERG current change (%, negative = inhibition) at 10uM” value worked out at 15.6%.
Regarding `COC(=O)c1ccc(C(C(=O)NCc2ccccc2)N(Cc2ccco2)C(=O)c2cnccn2)cc1` (centres unmarked), the “hERG current change (%, negative = inhibition) at 10uM” value is on record as -25.4%.
Turning to `CC1C(C)N1CC(O)Cn1ccnc1[N+](=O)[O-]` (centres unmarked), the “hERG current change (%, negative = inhibition) at 10uM” value is listed as -6.85%.
As to `CCC(C)(C)NC(=O)c1ccccc1Oc1ccccc1`, the “hERG current change (%, negative = inhibition) at 10uM” value is reported as -29.9%.
Take `CN(C(=O)CN1C(=O)CCSc2ccc(S(=O)(=O)N3CCCC3)cc21)c1ccccc1`: the “hERG current change (%, negative = inhibition) at 10uM” value is recorded as -1.46%.
With `O=C(CSc1nc2ccccc2[nH]1)N=Nc1c(O)[nH]c2ccccc12` the figure was -4.91%; with `Cc1cc([N+](=O)[O-])nn1CC(=O)Nc1ccc(Cl)cn1`, -0.173%.
Under `Cc1ccc(C(=O)Nc2cccc(C(=O)O)c2)cc1S(=O)(=O)N1CCCCC1` stands 11.4%; under `COc1ccc(S(=O)(=O)Cc2ccc(C(=O)NC3CCCCC3)o2)cc1`, -2.17%.
Under `COc1cc(-c2noc(CCCC(=O)Nc3cccnc3)n2)cc(OC)c1OC` stands -10.5%.
With `O=C(N=C1SC2CS(=O)(=O)CC2N1c1ccccc1Cl)C1CCCO1` (centres unmarked), the “hERG current change (%, negative = inhibition) at 10uM” value came out at 16.3%.
As for `CCn1c(CNC(=O)C(C)(C)C)nc2ccccc21`, the “hERG current change (%, negative = inhibition) at 10uM” value is listed as -6.07%.
Regarding `CCCc1nnc(N2C(=O)c3cccc4cccc(c34)C2=O)s1`, the “hERG current change (%, negative = inhibition) at 10uM” value was found to be 10.3%.
`Cc1ccc(S(=O)(=O)NCc2cn3ccsc3n2)c(C)c1`: the “hERG current change (%, negative = inhibition) at 10uM” value is -4.33%.
For `CC[C@H]1OC(=O)[C@H](C)[C@@H](O[C@H]2C[C@@](C)(OC)[C@@H](O)[C@H](C)O2)[C@H](C)[C@@H](O[C@@H]2O[C@H](C)C[C@H](N(C)C)[C@H]2O)[C@](C)(O)C[C@@H](C)C(=NOCOCCOC)[C@H](C)[C@@H](O)[C@]1(C)O`, the “hERG current change (%, negative = inhibition) at 10uM” value is 17.2%.
As to `O=C(c1ccccc1)C(C(=O)N1CCCCC1)n1ccccc1=O` (centres unmarked), the “hERG current change (%, negative = inhibition) at 10uM” value was -2.77%.
Under `COc1cc(N2CCCC2)c(OC)cc1/C=C(/C#N)c1ccc(Br)cc1` stands -7.89%; under `COC(=O)Cc1c(O)ccn(Cc2ccc(Cl)c(Cl)c2)c1=O`, 10.3%; under `Cc1ccc(S(=O)(=O)N2CCN(C(C)C(=O)Nc3ccccc3-c3ccccc3)CC2)cc1` (centres unmarked), -8.46%.
As to `COC(=O)c1ccc(NC(=O)COC(=O)c2cccc3c(=O)c(C)c(-c4ccccc4)oc23)cc1`, the “hERG current change (%, negative = inhibition) at 10uM” value was 13.5%.
As for `Cc1cccc(-n2c(O)c(C=NCCN3CCCCC3)c(=O)[nH]c2=O)c1`, the “hERG current change (%, negative = inhibition) at 10uM” value is recorded as -1.46%.
Under `CC1(c2ccccc2)CC(C)(C)N2C(=O)C(=O)c3cccc1c32` (centres unmarked) stands 19.6%; under `CCOc1ccc(CCNC(=O)COC(=O)C2CC2)cc1OCC`, 3.41%; under `CCC(C)NC(=O)CN1C(=O)NC2NC(=O)NC21` (centres unmarked), 10.3%.
`CCN(CC)C(=O)Cn1cc(S(=O)(=O)CC(=O)Nc2ccc(OC)c(OC)c2)c2ccccc21`: the “hERG current change (%, negative = inhibition) at 10uM” value is listed as -23.2%.
In the case of `Cc1cc(C)cc(-n2nnnc2SCC(=O)Nc2nc(-c3ccc(F)cc3)cs2)c1`, the “hERG current change (%, negative = inhibition) at 10uM” value turned out to be 1.26%.

For the origin of these results see paper PMC4336329 (PLoS ONE, 2015).
